Experimental data from ChEMBL document CHEMBL1909046, “DrugMatrix in vitro pharmacology data”.

Legend:
Cytochrome P450 2E1 = Cytochrome P450 2E1 (Homo sapiens, UniProt P05181); conditions: bti-tn-5b1-4
Cytochrome P450 2A6 = target: T1, Cytochrome P450 2A6 (Homo sapiens, UniProt P11509); conditions: bti-tn-5b1-4
T1 sequence (P11509 whole entry): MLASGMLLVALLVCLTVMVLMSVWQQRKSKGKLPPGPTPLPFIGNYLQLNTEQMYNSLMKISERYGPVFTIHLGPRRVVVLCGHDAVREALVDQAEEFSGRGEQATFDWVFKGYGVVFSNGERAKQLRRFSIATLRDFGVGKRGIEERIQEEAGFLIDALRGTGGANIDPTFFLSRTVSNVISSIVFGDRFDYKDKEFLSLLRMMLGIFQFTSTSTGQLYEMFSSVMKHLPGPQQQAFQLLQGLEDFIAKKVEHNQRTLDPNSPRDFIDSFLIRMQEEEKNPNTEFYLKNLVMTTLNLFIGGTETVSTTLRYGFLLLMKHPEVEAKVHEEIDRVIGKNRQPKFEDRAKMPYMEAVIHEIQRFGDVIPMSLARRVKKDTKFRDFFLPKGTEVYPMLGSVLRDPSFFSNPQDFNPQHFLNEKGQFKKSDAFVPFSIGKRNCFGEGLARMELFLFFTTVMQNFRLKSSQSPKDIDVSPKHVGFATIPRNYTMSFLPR

[1] = target: Voltage-gated inwardly rectifying potassium channel KCNH2 (Homo sapiens, UniProt Q12809); conditions: hek293
Cytochrome P450 1A2 = target: T2, Cytochrome P450 1A2 (Homo sapiens, UniProt P05177); conditions: bti-tn-5b1-4
T2 sequence (P05177 whole entry): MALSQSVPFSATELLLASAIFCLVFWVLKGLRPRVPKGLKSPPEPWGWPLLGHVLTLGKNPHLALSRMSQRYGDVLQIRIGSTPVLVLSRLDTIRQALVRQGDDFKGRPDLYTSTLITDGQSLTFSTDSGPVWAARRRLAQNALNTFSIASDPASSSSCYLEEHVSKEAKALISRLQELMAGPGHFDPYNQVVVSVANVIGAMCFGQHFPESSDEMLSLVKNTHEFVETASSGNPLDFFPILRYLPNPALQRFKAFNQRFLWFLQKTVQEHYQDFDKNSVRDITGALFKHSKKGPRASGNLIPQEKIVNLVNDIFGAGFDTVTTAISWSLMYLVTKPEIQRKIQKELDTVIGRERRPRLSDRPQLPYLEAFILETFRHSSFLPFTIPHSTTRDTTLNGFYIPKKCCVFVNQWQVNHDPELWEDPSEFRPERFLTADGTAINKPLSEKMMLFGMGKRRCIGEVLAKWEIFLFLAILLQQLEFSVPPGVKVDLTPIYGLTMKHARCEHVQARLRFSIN

Cytochrome P450 2C19 = Cytochrome P450 2C19 (Homo sapiens, UniProt P33261); conditions: bti-tn-5b1-4
Note: in other assays of this panel Not Active means under 50% inhibition at 10 µM.

Sequence of Cytochrome P450 2C19 (P33261 whole entry): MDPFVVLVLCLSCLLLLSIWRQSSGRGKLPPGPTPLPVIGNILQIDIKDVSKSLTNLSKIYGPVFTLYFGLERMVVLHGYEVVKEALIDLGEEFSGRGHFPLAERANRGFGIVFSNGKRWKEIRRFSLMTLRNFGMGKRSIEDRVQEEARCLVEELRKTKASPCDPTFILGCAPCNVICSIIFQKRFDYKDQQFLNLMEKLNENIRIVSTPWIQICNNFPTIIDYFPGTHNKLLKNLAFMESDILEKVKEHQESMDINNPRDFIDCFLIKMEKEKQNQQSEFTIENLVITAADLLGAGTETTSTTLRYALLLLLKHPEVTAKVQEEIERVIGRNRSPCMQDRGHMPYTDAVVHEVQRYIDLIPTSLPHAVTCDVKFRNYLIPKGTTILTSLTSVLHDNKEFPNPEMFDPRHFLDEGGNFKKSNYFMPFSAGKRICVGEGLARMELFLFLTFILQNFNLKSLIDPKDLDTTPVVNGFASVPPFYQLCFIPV
Sequence of Cytochrome P450 2E1 (P05181 whole entry): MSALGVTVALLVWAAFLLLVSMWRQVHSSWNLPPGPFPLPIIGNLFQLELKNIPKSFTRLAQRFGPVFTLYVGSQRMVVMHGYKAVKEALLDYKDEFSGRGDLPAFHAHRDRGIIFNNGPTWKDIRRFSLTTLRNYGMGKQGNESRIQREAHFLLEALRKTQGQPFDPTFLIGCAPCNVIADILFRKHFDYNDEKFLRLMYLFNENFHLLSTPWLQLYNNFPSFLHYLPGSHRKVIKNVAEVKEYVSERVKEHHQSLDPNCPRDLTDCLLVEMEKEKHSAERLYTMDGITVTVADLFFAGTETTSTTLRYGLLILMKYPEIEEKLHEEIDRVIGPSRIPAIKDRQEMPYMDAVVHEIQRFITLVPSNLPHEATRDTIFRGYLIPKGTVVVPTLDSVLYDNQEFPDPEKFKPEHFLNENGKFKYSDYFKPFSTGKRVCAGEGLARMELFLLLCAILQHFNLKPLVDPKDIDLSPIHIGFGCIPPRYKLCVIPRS
Sequence of Voltage-gated inwardly rectifying potassium channel KCNH2 (Q12809 whole entry): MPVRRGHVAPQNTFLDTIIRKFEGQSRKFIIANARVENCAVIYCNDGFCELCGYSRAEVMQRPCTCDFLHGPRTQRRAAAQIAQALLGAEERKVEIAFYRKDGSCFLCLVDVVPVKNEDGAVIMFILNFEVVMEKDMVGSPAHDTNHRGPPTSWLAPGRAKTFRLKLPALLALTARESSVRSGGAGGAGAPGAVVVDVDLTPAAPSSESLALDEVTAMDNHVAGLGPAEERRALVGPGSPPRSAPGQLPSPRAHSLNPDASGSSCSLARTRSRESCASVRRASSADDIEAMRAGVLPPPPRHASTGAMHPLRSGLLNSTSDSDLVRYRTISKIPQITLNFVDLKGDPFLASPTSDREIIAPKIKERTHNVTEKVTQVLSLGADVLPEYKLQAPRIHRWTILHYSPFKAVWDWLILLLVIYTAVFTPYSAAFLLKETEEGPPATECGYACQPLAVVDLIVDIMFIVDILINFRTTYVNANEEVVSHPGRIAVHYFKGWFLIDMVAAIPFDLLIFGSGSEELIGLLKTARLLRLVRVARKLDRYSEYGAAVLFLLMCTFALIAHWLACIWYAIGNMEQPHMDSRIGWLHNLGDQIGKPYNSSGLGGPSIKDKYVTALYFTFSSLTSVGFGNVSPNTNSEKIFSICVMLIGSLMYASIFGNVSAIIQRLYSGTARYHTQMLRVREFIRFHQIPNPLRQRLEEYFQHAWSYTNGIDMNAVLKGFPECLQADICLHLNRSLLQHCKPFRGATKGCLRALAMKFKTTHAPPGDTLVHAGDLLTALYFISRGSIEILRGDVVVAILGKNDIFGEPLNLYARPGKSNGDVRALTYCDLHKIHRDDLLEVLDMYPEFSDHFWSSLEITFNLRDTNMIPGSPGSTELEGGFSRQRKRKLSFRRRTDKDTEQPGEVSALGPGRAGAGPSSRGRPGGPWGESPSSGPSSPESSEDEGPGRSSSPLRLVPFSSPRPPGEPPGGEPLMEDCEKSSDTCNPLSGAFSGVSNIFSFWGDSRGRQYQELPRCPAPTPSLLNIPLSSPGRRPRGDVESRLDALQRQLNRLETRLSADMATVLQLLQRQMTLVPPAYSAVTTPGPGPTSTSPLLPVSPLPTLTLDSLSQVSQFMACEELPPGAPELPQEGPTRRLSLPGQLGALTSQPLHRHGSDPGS

CCC[C@@H]1C[C@@H](C(=O)N[C@@H]([C@H]2O[C@H](SC)[C@H](O)[C@@H](O)[C@H]2O)[C@H](C)Cl)N(C)C1 [CLINDAMYCIN]
Not Active: IC50 (Cytochrome P450 2E1) | Ki (Cytochrome P450 2E1) | IC50 (Cytochrome P450 2A6) | Ki (Cytochrome P450 2A6) | IC50 [1] | Ki [1] | IC50 (Cytochrome P450 1A2) | Ki (Cytochrome P450 1A2) | IC50 (Cytochrome P450 2C19) | Ki (Cytochrome P450 2C19)
